{"source": "PubChem BioAssay AID1240", "about": "(Sanford-Burnham Center for Chemical Genomics, 2008)", "note": "Screen size: about 50,000 compounds; about 800 (1.6%) showed an effect of 50% or more. The list shows a part of the results."}
{"biological_target": "Bcl-2-like protein 10 (Homo sapiens) (UniProt Q9HD36)", "sequence (Q9HD36 whole entry, looked up)": "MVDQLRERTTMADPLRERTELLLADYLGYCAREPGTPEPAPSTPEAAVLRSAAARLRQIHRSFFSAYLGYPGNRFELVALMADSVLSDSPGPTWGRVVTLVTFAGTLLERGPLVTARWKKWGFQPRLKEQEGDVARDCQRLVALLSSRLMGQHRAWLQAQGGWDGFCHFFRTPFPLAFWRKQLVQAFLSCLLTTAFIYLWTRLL", "test": "TR3 peptide-Bcl-B binding displacers, biochemical primary FP assay, phenotype converters (AID 1240);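 also: 0% = Bcl-B with tracer peptide and DMSO and 100% = tracer peptide lacking Bcl-B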", "conditions": "GST-Bcl-B / FITC-TR3 peptide fluorescence polarization; stronger effect = higher value; compound at 3.75 mg/L", "units": {"displacement": "%"}}
{"molecule": "Cc1cc(C)n(/N=C/c2c[nH]c3ccccc23)c(=O)c1C#N", "displacement": 3}
{"molecule": "CC(=O)N1CCN(c2ccc(NC(=O)c3ccc(Cl)cc3)cc2)CC1", "displacement": 11.6}
{"molecule": "CCOC(=O)c1[nH]nc2c1C(=O)N(c1ccc(Br)cc1)C2=O", "displacement": -7}
{"molecule": "Cc1ccc(C(=O)Nc2nnc(C(C)C)s2)cc1", "displacement": -4.7}
{"molecule": "CC1CC(C)CN(C(=O)c2ccc(Cl)cc2)C1", "note": "(stereo not given)", "displacement": 13.7}
{"molecule": "C=CCNC(=O)Nc1ccc2nccnc2c1", "displacement": 8.7}
{"molecule": "CCN(CC)S(=O)(=O)c1ccc(NC(=O)c2ccc(OC)c(I)c2)cc1", "displacement": -12.2}
{"molecule": "O=C1NC(c2ccc([N+](=O)[O-])cc2)Nc2c1sc(=S)n2-c1ccccc1", "note": "(stereo not given)", "displacement": 7.7}
{"molecule": "Cc1cccc(OCC(=O)O/N=C(\\N)c2cccnc2)c1", "displacement": 4.1}
{"molecule": "O=C(NCCO)C(=O)Nc1cccc(F)c1", "displacement": 3.4}
{"molecule": "O=C(O)c1ccccc1NC1=C(Cl)C(=O)N(c2ccccc2Cl)C1=O", "displacement": 9.6}
{"molecule": "CC(=O)Nc1ccc(N/C=C/C(=O)c2ccccc2)cc1", "displacement": -2}
{"molecule": "CC(C)(C)c1ccc(S(=O)(=O)N/N=C/c2cc(Br)ccc2O)cc1", "displacement": 5.5}
{"molecule": "CCOC(=O)c1c(C)[nH]c(=S)c(C#N)c1-c1ccccc1", "displacement": 0.9}
{"molecule": "CCC(=O)c1ccc(N2CCN(S(=O)(=O)c3ccccc3)CC2)c(F)c1", "displacement": 2.4}
{"molecule": "CCN(CC)CCn1c2ccccc2n2cc(-c3ccc(OC)cc3)nc12", "displacement": -10.4}
{"molecule": "N/C(=N\\OC(=O)c1ccc(Cl)cc1Cl)c1ccc(Cl)cc1", "displacement": -3.3}
{"molecule": "CC(C)Oc1ccccc1-c1cc(C(=O)O)c2ccccc2n1", "displacement": 4.9}
{"molecule": "Cc1ccccc1C(=O)NNC(=O)c1cccc(Br)c1", "displacement": -12}
{"molecule": "O=c1oc(-c2cccc(F)c2)nc2cc(Cc3ccc4c(=O)oc(-c5cccc(F)c5)nc4c3)ccc12", "displacement": 12.4}
{"molecule": "CC(=O)Nc1ccc(N2C(=O)C3C4C=CC(CC4)C3C2=O)cc1", "note": "(stereo not given)", "displacement": -5.5}
{"molecule": "O=C1NC(=S)N(c2cccc(Br)c2)C(=O)/C1=C/c1ccc(-c2ccc(C(=O)O)cc2)o1", "displacement": -91.9}
{"molecule": "COc1ccc(C(=O)N=Nc2c(O)n(CN(C)C)c3ccc(Br)cc23)cc1", "displacement": -10.9}
{"molecule": "CCOc1ccc(NC(=O)CC2SC(=Nc3ccccc3)N(c3ccccc3)C2=O)cc1", "note": "(stereo not given)", "displacement": 0.7}
{"molecule": "CCOC(=O)c1c(N)sc2c1CCc1ccccc1-2", "displacement": 4.3}
{"molecule": "Cc1ccc(S(=O)(=O)Oc2ccc(/C=C3\\SC(=S)NC3=O)cc2)cc1", "displacement": -32.2}
{"molecule": "CC(C)C12CC3CC(CC(C(=O)NN)(C3)C1)C2", "displacement": 8.7}
{"molecule": "CC(C)c1ccccc1NC1=NS(=O)(=O)c2cc([N+](=O)[O-])ccc21", "displacement": 8.4}
{"molecule": "O=C(Nc1cccc(O)c1)c1cccc(NC(=O)c2ccccc2-c2ccccc2C(=O)O)c1", "displacement": -7.1}
{"molecule": "COc1ccc2c(Cl)c(C(=O)N3CCN(CCN4C(=O)c5cccc6cccc(c56)C4=O)CC3)sc2c1", "displacement": 5.4}
